In PubChem BioAssay AID1508624 (National Center for Advancing Translational Sciences (NCATS), 2021):
The campaign covered roughly 48,000 compounds. About 120 (0.25%) were called active. Not shown: some 4% with an inconclusive outcome. The call rests on the fitted dose curve; in most records, active means well fitted activation curve with a large enough effect; inconclusive means small, poorly fitted or top-dose-only effect, or another doubt; inactive means no such curve, though single readings can be large or run the other way. This is one part of the list.

Assay: Primary qHTS for Identification of Small Molecule Activators of Huntingtin-Antisense Promoter Activity; further: nearly all actives have a fitted effect of over 55% in size
Conditions: HEK293 HTT-AS promoter firefly luciferase reporter, 24 h; series mostly up to 57.5 µM; activity change, positive = activation: at the top concentration
Procedure, shortened: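 Luminescence was read after Dual-Glo reagent and a 10 min room-temperature incubation. Values were normalized to vehicle (0% activity) and zero RLU (-100% activity). Reporter HEK293 cells had been exposed to compounds (up to 57.5 uM final) for 24 h.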

Activity change, positive = activation, inactive:
Cc1ccccc1OCC(O)Cn1c(=N)n(CCN2CCCCC2)c2ccccc21 (stereo not given) -29%
Cc1ccc(-c2nnc(Nc3cccc(O)c3)c3ccccc23)cc1S(=O)(=O)N1CCN(C)CC1 11.1% [at 11.5 µM, percent change from vehicle, -100% = no light]
Cc1ccc(Cn2c(=O)n(CCCC(=O)NCc3ccccc3Cl)c(=O)c3ccccc32)cc1 -5.86%
COc1ccc(OC)c(NC(=O)c2c(NCc3cccs3)sc3c2CCCC3)c1 -17%
COC(=O)c1cnc(N2CCN(c3ccccc3F)CC2)c2ccccc12 1.78%
Cc1ccc(NC(=O)C2CCN(c3nc4ccccc4[nH]3)CC2)c(C)c1 -7.74%
COCCN1C(=O)c2[nH]nc(-c3cc(C)ccc3O)c2C1c1ccc(C(C)C)cc1 (stereo not given) -13.7%
CCc1ccccc1NC(=O)c1cc(S(=O)(=O)N2CCCC2)cn1C -6.37%
Cc1cccc(N2CCN(C(=O)CCc3c(C)nc4ncnn4c3C)CC2)c1C -23.6%
COc1ccccc1NC(=O)NCCN1CCN(c2cccc(Cl)c2)CC1 -8.97%
CC(C)c1cccc(C(C)C)c1NC1=NS(=O)(=O)c2ccccc21 -12.4%
Cc1ccc(CNS(=O)(=O)c2cc3c(cc2C)NC(=O)CO3)cc1 -21.5%
COc1ccc(OC)c(NC(=O)CN2C(=O)COc3ccc(S(=O)(=O)NC4CCCC4)cc32)c1 -15.8%
CN(CC(=O)Nc1cccc(C(F)(F)F)c1)S(=O)(=O)c1cccs1 -17%
O=C(Cn1c(-c2cccs2)cc2ccccc21)NCCc1ccc(Cl)cc1 -23.3%
COC(=O)C(C)Sc1ncnc2c1c(-c1ccccc1)cn2-c1ccc(F)cc1 (stereo not given) -19.3%
Cc1cccc(C)c1-n1ncc(C(=O)N2CCN(c3ccccc3)CC2)c1C1CCN(C(=O)OC(C)(C)C)CC1 -28.7%
CCOc1ccccc1NC(=O)c1cc2c(=O)oc3ccccc3c2s1 0.43%
O=C(c1ccc(CSc2nc3ccncc3n2Cc2cccc(F)c2)cc1)N1CCCCCC1 -19.8%
Cc1cncn1CCc1nc2c3ccccc3nc(SCC(=O)Nc3cccc(Cl)c3)n2n1 -92.5%
CCCCN(CC)CCNC(=O)Cn1cc2c(n1)-c1c(oc(C(=O)N3CCCC3)c1C)CC2 -13.5%
CN(C(=O)CSc1cn(CC(=O)N2CCOCC2)c2ccccc12)c1ccccc1 2.61%
CC(=O)N1CCCc2cc(S(=O)(=O)N3CCC(C(=O)NCc4cccc(C)c4)CC3)ccc21 -20%
COc1cccc(Cn2c(=O)n(Cc3ccco3)c(=O)c3oc4ccccc4c32)c1 -12%
CCCOc1cccc(C(=O)N(Cc2ccc(C)o2)C2CCS(=O)(=O)C2)c1 (stereo not given) -13.1%
COCCNc1sc(S(=O)(=O)c2ccc(C)cc2)nc1S(=O)(=O)c1ccc(C)cc1 -4.68%
CC(=O)Nc1ccc(NC(=O)CSc2nccn2C)cc1 -0.569%
N#Cc1ccc(C(c2ccc(C#N)cc2)n2cncn2)cc1 -21.6%
CCCN(C(=O)c1noc2c1COc1ccc(C)cc1-2)c1ccc(Cl)c(Cl)c1 -17.8%
CCOC(=O)c1cc2c(=O)n3ccccc3nc2n(CC(C)C)c1=NC(=O)c1c(-c2c(F)cccc2Cl)noc1C 5.34%
COC(=O)c1ccccc1NC(=O)c1c(NC(=O)c2ccco2)sc2c1CCC(C(C)(C)C)C2 (stereo not given) -9.2%
COc1cc(NS(=O)(=O)c2ccc3[nH]c4c(c3c2)CCCCCC4)cc(OC)c1 -27.7%
Cc1ccc(NC(=O)CC(C)S(=O)(=O)c2ccc3c(c2)NC(=O)CO3)cc1Cl (stereo not given) -16.1%
Cc1nc2nc(SCC(=O)NCc3ccccc3Cl)nn2c(C)c1Cc1ccccc1 -2.61%
CCc1nc(-c2cc(S(=O)(=O)N3CCN(c4ccccc4OC)CC3)ccc2OC)no1 -11.9%
CCOC(=O)Cn1c(=O)c2c(nc3n2CCN3c2ccc(CC)cc2)n(C)c1=O -12.3%
COc1cc(Cl)c(C)cc1Nc1ncnc2c1nc1n2CCCC1 7.94%
COc1ccc(Cl)cc1NC(=O)CN1C(=O)COc2ccc(S(=O)(=O)NC3CCCC3)cc21 -16.5%
Cc1ccc(-c2nnc(Nc3ccc(O)cc3)c3ccccc23)cc1S(=O)(=O)N1CCOCC1 -48%
CCOC(=O)c1cc(-c2ccccc2)n(-c2cccc(C(=O)Nc3ccc(OCC)cc3)c2)c1C -29.3%
COc1cccc(NS(=O)(=O)c2ccc(-c3cc(C)no3)s2)c1 0%
CCn1c(CNC(=O)C23CC4CC(CC(C4)C2)C3)nnc1SCC(=O)Nc1ccccc1 -16.3%
Cc1ccc(C)c(OCCn2cc(C(=O)c3ccco3)c3ccccc32)c1 -11.7%
COc1ccc(-c2nc(CNS(=O)(=O)c3ccccc3)cs2)cc1 -20.3%
COc1cccc(CNC(=O)c2cc3c(s2)-c2c(C)cccc2OC3)c1 -10%
COc1c2occc2cc2ccc(=O)oc12
O=C(Oc1ccc(F)cc1)c1nc(SCc2ccccc2F)ncc1Cl -7.14%
Cc1oc2ncn(C)c(=O)c2c1C(=O)N1CCN(c2ccccc2)CC1 -0.365%
COc1ccccc1C(=O)NC1(C(F)(F)F)C(=O)Nc2c1c(=O)[nH]c(=O)n2-c1ccccc1 (stereo not given) -10.3%
Cn1c(=O)c2c([nH]c(=O)n2Cc2ccc(Cl)cc2Cl)n(C)c1=O 0.737%
Cc1ccc2c(c1)-c1nc(-c3ccc4c(c3)NC(=O)CO4)cc(-c3ccc(Cl)cc3)c1CO2 0.847%
COc1ccc2c(OCc3nnc4ccc(-c5ccccc5)nn34)ccnc2c1 1.62%
CC1CCCN(CCCNC(=O)c2cn(C)c3ccc(S(=O)(=O)N(C)C4CCCCC4)cc3c2=O)C1 (stereo not given) -5.29%
Cc1ccc(NS(=O)(=O)c2ccc3nc(-c4ccccc4)[nH]c3c2)c(Cl)c1 -31.8%
COc1ccccc1CNC(=O)c1ccc2c(c1)N(Cc1cccc(Cl)c1)C(=O)c1ccccc1S2(=O)=O -14.5%
COc1ccc(Cn2c(C(=O)O)c(CNCCc3cccs3)c3ccc(C)cc32)cc1 -34.2%
Cc1ccc(Cn2c(C(=O)O)c(CNC3CCCCCC3)c3ccc(C)cc32)cc1 -12.8%
CC(=O)c1ccc(NC(=O)Cn2c(=O)c3cccn3c3ccccc32)cc1 -23.7%
Cc1ccc(NC(=O)Cn2c(=O)n(CCC(=O)N3CCc4ccccc4C3)c(=O)c3ccccc32)cc1 -3.12%
Cc1oc2ncn(CC(C)C)c(=O)c2c1C(=O)Nc1cc(F)ccc1F -2.03%
